# From the supplement of paper PMC8285479
# Structures can show the parent of a compound that is named as a salt. ± gives the standard deviation of the averaged measurements. In all, about 1,900 compounds were measured (“normalised cell viability (NPI; 0 = phenylarsine oxide control, 1 = DMSO control)”: median about 1, lowest 2% from about 0.039 on). The list shows a part of the results.
# Tested on: NCI-H1944
# Experiment: normalised cell viability (NPI; 0 = phenylarsine oxide control, 1 = DMSO control) (fraction of DMSO control); NCI-H1944 is a non-small cell lung cancer line; higher = more viable cells (less compound toxicity)
# Settings: 6 days
# [1] = glucocorticoid arm: hydrocortisone 2.75 uM co-treatment, compound 1 µM
# [2] = glucocorticoid arm: hydrocortisone 2.75 uM co-treatment, compound 5 µM
# [3] = glucocorticoid arm: hydrocortisone 2.75 uM pre-treated 2 days and continued, compound 1 µM
# [4] = glucocorticoid arm: hydrocortisone 2.75 uM pre-treated 2 days and continued, compound 5 µM
# [5] = glucocorticoid arm: vehicle, compound 1 µM
# [6] = glucocorticoid arm: vehicle, compound 5 µM
# 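Note: CTB read-out in 384-well plates, mean of triplicate wells, normalised per plate against 1 µM phenylarsine oxide and 0.1% DMSO, compounds added 24 h after seeding.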
SMILES,normalised cell viability [1],normalised cell viability [2],normalised cell viability [3],normalised cell viability [4],normalised cell viability [5],normalised cell viability [6]
"C[N+]1(C)[C@@H]2CC(OC(=O)[C@H](CO)c3ccccc3)C[C@H]1[C@@H]1O[C@@H]12 (single isomer, unassigned; (-)) [(-)-Scopolamine methyl nitrate]",1.01,1 ± 0.016,0.923 ± 0.14,1.02 ± 0.01,1.002 ± 0.0072,0.9997 ± 0.0091
NC(Cc1cc(O)c(O)cc1O)C(=O)O (racemic) [6-Hydroxy-DL-DOPA],1 ± 0.01,0.965 ± 0.015,1 ± 0.0085,0.9733 ± 0.0081,1.001 ± 0.0081,1.007 ± 0.0058
O=c1[nH]oc2c1CCNC2 [THIP hydrochloride],0.9973 ± 0.0046,1.01 ± 0.024,1.03 ± 0.036,0.999 ± 0.011,1.003 ± 0.0058,1.001 ± 0.0081
CC[C@@H](CO)NC(=O)[C@@H]1C=C2c3cccc4c3c(cn4C)C[C@H]2N(C)C1 [Methysergide maleate],1.01,1.04 ± 0.032,1.01 ± 0.01,1.07 ± 0.067,0.9937 ± 0.0045,1.01 ± 0.015
CC(C)C1CNC(C(=O)O)C1CC(=O)O (configuration not stated) [Dihydrokainic acid],0.9947 ± 0.0055,0.973 ± 0.017,0.9907 ± 0.0057,0.971 ± 0.011,0.9793 ± 0.0035,0.9803 ± 0.006
COc1cc2c(c(OC)c1OC)-c1ccc(OC)c(=O)cc1[C@@H](NC(C)=O)CC2 [Colchicine],0.352 ± 0.047,0.273 ± 0.012,0.9493 ± 0.0045,0.872 ± 0.11,0.0721 ± 0.007,0.055 ± 0.0079
COc1ccc2c(c1)[C@@]13CCCC[C@H]1[C@@H](C2)NCC3 [3-Methoxymorphinan hydrochloride],1.013 ± 0.0058,0.989 ± 0.03,1.02 ± 0.015,1.06 ± 0.058,1.003 ± 0.0058,1.01 ± 0.01
CCN(CC)C(=O)N[C@H]1C[C@@H]2c3cccc4[nH]cc(c34)C[C@H]2N(C)C1 [S(+)-Terguride],0.989 ± 0.011,1.01 ± 0.02,0.79 ± 0.37,0.996 ± 0.016,0.9953 ± 0.0015,0.993 ± 0.0056
"CC(N)C(O)c1ccc(O)c(O)c1 (single isomer, unassigned; (-)) [(-)-alpha-Methylnorepinephrine]",1.01 ± 0.012,0.971 ± 0.044,0.995 ± 0.013,0.958 ± 0.034,0.9967 ± 0.0058,0.9977 ± 0.0032
C/C=C(/C)C(=O)O[C@H]1C(C)=C2[C@H]([C@@H]1OC(=O)CCCCCCC)[C@@](C)(OC(C)=O)C[C@H](OC(=O)CCC)[C@@]1(O)[C@H]2OC(=O)[C@@]1(C)O [Thapsigargin],0.0778 ± 0.015,0.0411 ± 0.016,0.215 ± 0.062,0.101 ± 0.029,0.0393 ± 0.014,0.00585 ± 0.0031
"C[C@]12CC[C@@H](O)C[C@@H]1CC[C@@H]1[C@@H]2CC[C@]2(C)[C@@H](C(=O)CO)CC[C@@H]12 [3-alpha,21-Dihydroxy-5-alpha-pregnan-20-one]",1.005 ± 0.0092,0.998 ± 0.013,1.01 ± 0.022,1.05 ± 0.07,1 ± 0.011,1.01 ± 0.015
CCCN(CCC)C1CCc2cccc(O)c2C1 (racemic) [(±)-8-Hydroxy-DPAT hydrobromide],1.02 ± 0.017,1.01 ± 0.01,1.01 ± 0.01,1.004 ± 0.0098,0.9967 ± 0.0058,0.9947 ± 0.0067
